In the RNAGym collection of RNA variant scans (doi:10.1093/nar/gkz1192):
The source gives no read counts; variants with many changes may rest on few reads.

B1: CPEB3 Ribozyme (parent)
chain: UAACAGGGGGCCACAGCAGAAGCGUUCACGUCGCAGCCCCUGUCAGAUUCUGGUGAAUCUGCGAAUUCUGCUGUAUAUCUC

Variants of: B1
Assay: self-cleavage, relative activity (ratio to wild type); higher = more cleavage; in vitro, sequencing
Summary of the method: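 CPEB3 self-cleaving ribozyme mutant libraries were made by rounds of error-prone PCR, barcoded, and transcribed in vitro with T7 RNA polymerase for 5 hours at 37°C. Cleavage occurred during transcription and a 15 min DNase I step before EDTA stop. RNAs were reverse transcribed with template switching and Illumina-sequenced, with DNA sequencing mapping barcodes to variants. Relative activity is the variant's cleaved/total read fraction divided by wild type's (minimum 5 reads), averaged across three batches.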

Q: Which self-cleavage does the source give for A18U U26C U43C U51A U60C A77G here?
A: 0.15

Q: With A18U G61A C62U as the variant, how does the self-cleavage read?
A: 0.29

Q: For A18U U25C U67C U69A, which self-cleavage is on record?
A: 0.13

Q: With A18U G46A U74A C79A as the variant, how does the self-cleavage read?
A: 0.1

Q: For A18U U25C U72A, which self-cleavage is on record?
A: 0.24

Q: With A18U A65U C71G A75C as the variant, how does the self-cleavage read?
A: 0.12

Q: For A18U A20U C62G U78C, which self-cleavage is on record?
A: 0.07

Q: For A18U G30A A45G U78G, which self-cleavage is on record?
A: 0.04

Q: With A18U G19U U26A U66C U72C as the variant, how does the self-cleavage read?
A: 0.05

Q: Which self-cleavage does the source give for A18U U25C U54A A65G U67C here?
A: 0.11

Q: For A18U G24U U66C C81U, which self-cleavage is on record?
A: 0.05

Q: With A18U A47U U60A G61C A65G as the variant, how does the self-cleavage read?
A: 0.07

Q: Which self-cleavage does the source give for A18U U31C U49C U54A U80A here?
A: 0.09

Q: Which self-cleavage does the source give for A18U U26C A35U U60C U66C here?
A: 0.14

Q: For A18U A21G G46U U49C A56G, which self-cleavage is on record?
A: 0.15

Q: For A18U A77U U78C, which self-cleavage is on record?
A: 0.37

Q: With A18U G24A U72A as the variant, how does the self-cleavage read?
A: 0.16

Q: For A18U G19A G33A U49A U66C U80G, which self-cleavage is on record?
A: 0.04

Q: With A18U G30A U49C as the variant, how does the self-cleavage read?
A: 0.16

Q: For A18U U43C G70A, which self-cleavage is on record?
A: 0.12

Q: For A18U C27U A35G U41A U72C, which self-cleavage is on record?
A: 0.05

Q: Which self-cleavage does the source give for A18U G24A U26C C37U G63C U66C U69C here?
A: 0.03

Q: Which self-cleavage does the source give for A18U U26G A57G U60A here?
A: 0.12

Q: With A18U U25C U60A G70A A77G as the variant, how does the self-cleavage read?
A: 0.07

Q: Which self-cleavage does the source give for A18U C23U U31C U54G C62U U69C here?
A: 0.15

Q: For A18U A28C A56G U58C, which self-cleavage is on record?
A: 0.14

Q: With A18U C32A A35G C37A A56G G61A as the variant, how does the self-cleavage read?
A: 0.14

Q: Which self-cleavage does the source give for A18U C32U U78C here?
A: 0.17

Q: For A18U C27A U54A U58C A65G U69A, which self-cleavage is on record?
A: 0.09

Q: Which self-cleavage does the source give for A18U U25C G30A U31C A45U U76A here?
A: 0.05

Q: With A18U A20G U43C A47G as the variant, how does the self-cleavage read?
A: 0.35

Q: For A18U U26C A35U A45U U54C A77G, which self-cleavage is on record?
A: 0.2

Q: For A18U U25C A45U A47C U49C U54C, which self-cleavage is on record?
A: 0.33

Q: With A18U A45G A64G U80A as the variant, how does the self-cleavage read?
A: 0.22

Q: For A18U A47U U54A U60C, which self-cleavage is on record?
A: 0.08

Q: Which self-cleavage does the source give for A18U U43A U80C here?
A: 0.59

Q: With A18U U48C U49C U60C as the variant, how does the self-cleavage read?
A: 0.08

Q: For A18U U25C U26A U31C C40U C62U, which self-cleavage is on record?
A: 0.07

Q: Which self-cleavage does the source give for A18U U25C U60A U78C here?
A: 0.1

Q: Which self-cleavage does the source give for A18U C38U U78C here?
A: 0.15

Q: Which self-cleavage does the source give for A18U G46A U58A here?
A: 0.14

Q: For A18U A56G A57U, which self-cleavage is on record?
A: 0.33

Q: With A18U A21G U69A as the variant, how does the self-cleavage read?
A: 0.66

Q: With A18U U26C U31C U60G as the variant, how does the self-cleavage read?
A: 0.06

Q: Which self-cleavage does the source give for A18U U31C A56U here?
A: 0.19

Q: With A18U A64U U78C as the variant, how does the self-cleavage read?
A: 0.22

Q: With A18U U26A U67A as the variant, how does the self-cleavage read?
A: 0.21

Q: With A18U G61A A64G C81U as the variant, how does the self-cleavage read?
A: 0.19

Q: Which self-cleavage does the source give for A18U U26C A28U U67A here?
A: 0.07

Q: With A18U U31A A47G U54G U60G U72C as the variant, how does the self-cleavage read?
A: 0.15

Q: Which self-cleavage does the source give for A18U A35G C39G U51A U72C U80A here?
A: 0.29

Q: Which self-cleavage does the source give for A18U A56G U80C here?
A: 0.32

Q: For A18U G22A A28G U41C A57G G61C, which self-cleavage is on record?
A: 0.14

Q: Which self-cleavage does the source give for A18U C38U U67C here?
A: 0.16

Q: With A18U G24A U25A U26A A45G U76C U80A as the variant, how does the self-cleavage read?
A: 0.02

Q: Which self-cleavage does the source give for A18U C39U U48C here?
A: 0.47

Q: With A18U A28G C37U U41C U51A A56G as the variant, how does the self-cleavage read?
A: 0.15

Q: With A18U A21G U26C C29A U41C U49C A75G as the variant, how does the self-cleavage read?
A: 0.14

Q: Which self-cleavage does the source give for A18U U25C A64U U74C here?
A: 0.07

Q: Which self-cleavage does the source give for A18U A64G U78A here?
A: 0.24

Q: With A18U A28U A56G U60G C62U U67C as the variant, how does the self-cleavage read?
A: 0.1

Q: For A18U U48C U51A A57G A64G A77U, which self-cleavage is on record?
A: 0.08

Q: With A18U A57G U60C U80C as the variant, how does the self-cleavage read?
A: 0.18

Q: For A18U A21G G42A, which self-cleavage is on record?
A: 0.07

Q: Which self-cleavage does the source give for A18U G22A U41A A45U A47G here?
A: 0.13

Q: For A18U U25C A64G U67A, which self-cleavage is on record?
A: 0.06

Q: Which self-cleavage does the source give for A18U A45G A56U C59A here?
A: 0.1

Q: For A18U U41C U54A, which self-cleavage is on record?
A: 0.46

Q: For A18U A65G U74G, which self-cleavage is on record?
A: 0.41

Q: For A18U U25C U51G U60C U72C, which self-cleavage is on record?
A: 0.06

Q: With A18U U43C U51C as the variant, how does the self-cleavage read?
A: 0.35

Q: With A18U A28G U43A U66A U80A as the variant, how does the self-cleavage read?
A: 0.07

Q: With A18U U43C U78A as the variant, how does the self-cleavage read?
A: 0.41

Q: For A18U U25C U26C C39G U54C U76C, which self-cleavage is on record?
A: 0.2

Q: Which self-cleavage does the source give for A18U U26A A56G U67A U69C U78C here?
A: 0.1

Q: For A18U A28G A35G A64G A65G U80C, which self-cleavage is on record?
A: 0.17

Q: Which self-cleavage does the source give for A18U A20U U31C U74C here?
A: 0.1

Q: Which self-cleavage does the source give for A18G U72C U74C here?
A: 0.96

Q: Which self-cleavage does the source give for A18U A20G U41A A64G here?
A: 0.07

Q: Which self-cleavage does the source give for A18U A57C U80C here?
A: 0.18

Q: For A18U C29U U48C, which self-cleavage is on record?
A: 0.13

Q: Which self-cleavage does the source give for A18U U26A U43C here?
A: 0.28

Q: Which self-cleavage does the source give for A18U U26C A64U U69C U76C here?
A: 0.07

Q: For A18U U25A A28G A35G A65G, which self-cleavage is on record?
A: 0.1
